# Source: PubChem BioAssay AID624296 (National Center for Advancing Translational Sciences (NCATS), 2012)
# Out of some 350,000 compounds screened, about 9,900 (2.8%) were called active. The inconclusive results got no clear call from the source; some entries with a clear call stand among them for comparison. The call rests on the fitted dose curve; in most records, active means well fitted activation curve with a large enough effect; inconclusive means small, poorly fitted or top-dose-only effect; inactive means no such curve, though single readings can be large or run the other way. No potency is given beside an inconclusive call; the fits are too rough.
# Experiment: A quantitative high throughput screen for small molecules that induce DNA re-replication in MCF 10a normal breast cells. Further: nearly all actives have a fitted effect of over 50% in size. On activity, positive = re-replication: % of control where 0% means no effect.
# Conditions: MCF 10A DNA re-replication, Hoechst nuclear intensity, 48 h; activity, positive = re-replication: at 46.1 µM (top of the series)
# Potency means the concentration at half of the fitted maximal effect; tags describe the fitted curve by direction and shape.
SMILES,Potency,"activity, positive = re-replication"
COC(C[C@H]1O[C@@H]1C(=O)COCc1ccccc1)OC,"inconclusive [activator, single point]",–
COc1cc(/C=N/NC(=O)c2cncc(Br)c2)cc([N+](=O)[O-])c1O,–,inactive: 0.947%
CC1CCN(CCc2nc3cc(NC(=O)COc4ccc([N+](=O)[O-])cc4)ccc3n2C)CC1,"inconclusive [activator, single point]",–
COc1cccc(Cn2c(=S)[nH]c3ccc(N4CCOCC4)cc3c2=O)c1,"inconclusive [activator, single point]",–
Cc1ccc(-c2nn(-c3ccccc3)cc2/C=C/C(=O)Nc2cccc(S(N)(=O)=O)c2)cc1,active: 13 µM,–
O=C(CNC(=O)c1ccccc1)N/N=C/c1cccs1,"inconclusive [activator, single point]",–
CC(=O)OCC1OC(OCc2cn(C[C@H]3CC[C@@H]([C@@H]4CC[C@H](Cn5cc(COC6OC(COC(C)=O)C(OC(C)=O)C(OC(C)=O)C6OC(C)=O)nn5)O4)O3)nn2)C(OC(C)=O)C(OC(C)=O)C1OC(C)=O (stereo partly drawn),"inconclusive [activator, full curve, poor fit]",–
CC(C)(C)OC(=O)NCCCCCNC(=O)c1[nH]cnc1C(=O)N[C@@H](Cc1ccccc1)C(=O)OCc1ccccc1,active: 13 µM,–
C(=NN=C1c2ccccc2-c2ccccc21)c1ccc2c(c1)OCO2,–,inactive: 9.13%
CC(=O)N1CCN(c2ccc(NC(=O)c3ccc(Br)o3)cc2Cl)CC1,–,inactive: 2.11%
Cc1ccc(CNC(=O)c2ccc(OCC(C)C)cc2)n1C,–,inactive: 1.26%
COc1ccc(-c2nc3c4ccccc4ccn3c2C=O)cc1,"inconclusive [activator, single point]",–
S=C(S)OC1CC2CC1C1CCCC21 (stereo not drawn),"inconclusive [activator, full curve]",–
O=C(N/N=C/c1ccc(-c2cccc([N+](=O)[O-])c2)o1)c1ccc([N+](=O)[O-])cc1,–,inactive: -35.4%
Cc1ccc(Cl)cc1N1CCN(C(=O)Cn2ccc3ccccc3c2=O)CC1,"inconclusive [activator, single point]",–
c1ccc(Sc2nc(N3CCCCC3)nc(N3CCCCC3)n2)nc1,"inconclusive [activator, single point]",–
CC(C)CNC(=S)N1CCN(C(c2ccccc2)c2ccccc2)CC1,–,inactive: 13%
COc1ccccc1CNS(=O)(=O)c1cc(C)ccc1OC,–,inactive: -15.1%
Cc1nc2oc3c(NCc4ccccn4)ncnc3c2c2c1COC(C)(C)C2,–,inactive: 5.33%
Cc1cccc(S(=O)(=O)NCCC(=O)OCC(=O)Nc2ccc(C#N)cc2)c1,–,inactive: 5.02%
Fc1ccc2nc(Nc3nc4c(F)cc(F)cc4s3)sc2c1,active: 14.6 µM,–
C/C(=N\NC(=O)CC#N)c1cc2ccc(O)cc2oc1=O,active: 9.2 µM,–

SMILES,Potency,"activity, positive = re-replication"
O=C(C[n+]1ccccc1)NNc1ccccc1,–,inactive: 19.1%
CC1CC(C)CN(C(=O)c2cccc(S(=O)(=O)Nc3cc(C(F)(F)F)ccc3Cl)c2)C1 (stereo not drawn),"inconclusive [activator, single point]",–
C/C(=N\NC(=O)CSCc1ccccc1Cl)c1cccc(NC(=O)c2ccccc2)c1,"inconclusive [activator, partial curve, poor fit]",–
COc1ccc(N(S(=O)(=O)c2ccccc2)S(=O)(=O)c2ccccc2)c(N)c1,"inconclusive [activator, single point]",–
N/C(=N\OC(=O)N1CCOCC1)c1ccc(Cl)cc1,"inconclusive [activator, single point]",–
COC(=O)c1ccc(NC(=S)NC(=O)c2c(Cl)cnn2C)cc1,–,inactive: 1.04%
O=C(CN(c1ccc(Br)cc1)S(=O)(=O)c1ccc(Cl)c([N+](=O)[O-])c1)NCCc1ccccc1,"inconclusive [activator, full curve]",–
Cc1ncc(CN2CCC(C(=O)Nc3cccc(-c4cscn4)c3)CC2)cn1,"inconclusive [activator, partial curve, poor fit]",–
Cc1cc(C)nc(SCc2cc(=O)c(OC(=O)c3ccc(S(=O)(=O)N4CCCC4)cc3)co2)n1,"inconclusive [activator, single point]",–
N#CCC(=O)N/N=C/c1ccc(Sc2nc3ccccc3s2)o1,"inconclusive [activator, partial curve, poor fit]",–
CCN(Cc1cc(=O)n2ccsc2n1)c1cccc2ccccc12,"inconclusive [activator, single point]",–
CCCS(=O)(=O)N1CCCC(C(=O)Oc2ccc(OC)cc2)C1 (stereo not drawn),"inconclusive [activator, single point]",–
O=C(CN1C(=O)NC2(CCCC2)C1=O)Nc1nc(-c2ccc(F)c(F)c2)cs1,"inconclusive [activator, partial curve, poor fit]",–
CC1Cc2ccccc2N1C(=S)NC(=O)c1ccco1 (stereo not drawn),"inconclusive [activator, partial curve, poor fit]",–
Cc1ccc(Cl)cc1N1CCN(C(=O)c2cccc3c(=O)c(C)c(-c4ccccc4)oc23)CC1,"inconclusive [activator, partial curve, poor fit]",–
COC(=O)c1ccc(C)c(NS(=O)(=O)c2ccc(NC(C)=O)cc2)c1,"inconclusive [activator, single point]",–
CCOC(=O)C1CCN(C(=O)CCNS(=O)(=O)c2ccc3c(c2)CCN3C(=O)CC)CC1,–,inactive: 14.5%
COc1ccc(C2C(O)C(c3c[nH]c4ccccc34)=NN2C(=O)CCl)cc1 (stereo not drawn),active: 4.61 µM,–
CCCCCC(O)(c1ccccc1)C(CN1CCOCC1)c1ccccc1 (stereo not drawn),"inconclusive [activator, single point]",–
Cc1nc(Nc2ccccc2Cl)sc1C(=O)Nc1ccccc1,"inconclusive [activator, partial curve, poor fit]",–
N#C/C(=C(/O)c1ccccc1F)c1nc2cc(C(F)(F)F)ccc2s1,"inconclusive [activator, partial curve, poor fit]",–
